This is one part of the list.
Key:
Assay in all cases: glycan array binding signal (z-score within array); higher = stronger binding
Details in all cases: glycan notation: IUPAC condensed, linker removed
[1] = target: Neu5Ac(a2-6)Gal(b1-4)GlcNAc(b1-6)[Gal(b1-3)GlcNAc(b1-3)]Gal(b1-4)Glc
Method in brief: (§1)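 From the Consortium for Functional Glycomics database, 3228 arrays were curated, keeping only those whose protein sequence was available. Binding is given as a within-array Z-score averaged across arrays sharing a protein sequence and across linkers. Negative Z-scores can be read as non-binding.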

[2] = target: Neu5Ac(a2-6)Gal(b1-4)GlcNAc(b1-6)[Gal(b1-3)]GalNAc
Method in brief: as §1

[3] = target: Neu5Ac(a2-6)Gal(b1-4)GlcNAc6S
Method in brief: as §1

[4] = target: Neu5Ac(a2-6)GalNAc
Method in brief: as §1

[5] = target: Neu5Ac(a2-6)GalNAc(b1-4)GlcNAc
Method in brief: as §1

[6] = target: Neu5Ac(a2-6)GalNAc(b1-4)GlcNAc6S
Method in brief: as §1

[7] = target: Neu5Ac(a2-6)GlcNAc(b1-4)GlcNAc
Method in brief: as §1

[8] = target: Neu5Ac(a2-6)GlcNAc(b1-4)GlcNAc(b1-4)GlcNAc
Method in brief: as §1

[9] = target: Neu5Ac(a2-8)Neu5Ac
Method in brief: as §1

[10] = target: Neu5Ac(a2-8)Neu5Ac(a2-3)Gal(b1-3)GalNAc(b1-4)[Neu5Ac(a2-3)]Gal(b1-4)Glc
Method in brief: as §1

[11] = target: Neu5Ac(a2-8)Neu5Ac(a2-3)Gal(b1-3)GalNAc(b1-4)[Neu5Ac(a2-8)Neu5Ac(a2-3)]Gal(b1-4)Glc
Method in brief: as §1

[12] = target: Neu5Ac(a2-8)Neu5Ac(a2-3)Gal(b1-4)Glc
Method in brief: as §1

[13] = target: Neu5Ac(a2-8)Neu5Ac(a2-3)Gal(b1-4)GlcNAc
Method in brief: as §1

[14] = target: Neu5Ac(a2-8)Neu5Ac(a2-3)[Gal(b1-3)GalNAc(b1-4)]Gal(b1-4)Glc
Method in brief: as §1

[15] = target: Neu5Ac(a2-8)Neu5Ac(a2-3)[GalNAc(b1-4)]Gal(b1-4)Glc
Method in brief: as §1

[16] = target: Neu5Ac(a2-8)Neu5Ac(a2-8)Neu5Ac
Method in brief: as §1

[17] = target: Neu5Ac(a2-8)Neu5Ac(a2-8)Neu5Ac(a2-3)Gal(b1-4)Glc
Method in brief: as §1

[18] = target: Neu5Ac(a2-8)Neu5Ac(a2-8)Neu5Ac(a2-3)[Gal(b1-3)GalNAc(b1-4)]Gal(b1-4)Glc
Method in brief: as §1

[19] = target: Neu5Ac(a2-8)Neu5Ac(a2-8)Neu5Ac(a2-3)[GalNAc(b1-4)]Gal(b1-4)Glc
Method in brief: as §1

[20] = target: Neu5Ac(a2-8)Neu5Ac(a2-8)Neu5Ac(a2-8)Neu5Ac(a2-3)[GalNAc(b1-4)]Gal(b1-4)Glc
Method in brief: as §1

[21] = target: Neu5Ac(a2-8)Neu5Gc(a2-3)Gal(b1-4)GlcNAc
Method in brief: as §1

[22] = target: Neu5Ac(b1-6)GalNAc
Method in brief: as §1

[23] = target: Neu5Ac(b2-6)Gal(b1-4)GlcNAc
Method in brief: as §1

[24] = target: Neu5Ac(b2-6)GalNAc
Method in brief: as §1

[25] = target: Neu5Ac9Ac(a2-3)Gal(b1-4)GlcNAc
Method in brief: as §1

[26] = target: Neu5Ac9Ac(a2-6)Gal(b1-4)GlcNAc
Method in brief: as §1

[27] = target: Neu5Gc(a2-3)Gal(b1-3)GlcNAc
Method in brief: as §1

[28] = target: Neu5Gc(a2-3)Gal(b1-3)[Fuc(a1-4)]GlcNAc
Method in brief: as §1

[29] = target: Neu5Gc(a2-3)Gal(b1-4)Glc
Method in brief: as §1

[30] = target: Neu5Gc(a2-3)Gal(b1-4)GlcNAc
Method in brief: as §1

[31] = target: Neu5Gc(a2-3)Gal(b1-4)GlcNAc(b1-3)Gal(b1-4)GlcNAc(b1-2)Man(a1-3)[Neu5Gc(a2-3)Gal(b1-4)GlcNAc(b1-3)Gal(b1-4)GlcNAc(b1-2)Man(a1-6)]Man(b1-4)GlcNAc(b1-4)GlcNAc
Method in brief: as §1

[32] = target: Neu5Gc(a2-3)Gal(b1-4)[Fuc(a1-3)]GlcNAc
Method in brief: as §1

[33] = target: Neu5Gc(a2-6)Gal(b1-4)GlcNAc
Method in brief: as §1

[34] = target: Neu5Gc(a2-6)GalNAc
Method in brief: as §1

[35] = target: Neu5Gc(a2-8)Neu5Ac(a2-3)Gal(b1-4)GlcNAc
Method in brief: as §1

[36] = target: Neu5Gc(a2-8)Neu5Gc(a2-3)Gal(b1-4)GlcNAc
Method in brief: as §1

[37] = target: Neu5Gc(a2-8)Neu5Gc(a2-3)Gal(b1-4)GlcNAc(b1-3)Gal(b1-4)GlcNAc
Method in brief: as §1

[38] = target: Neu5Gc(a2-8)Neu5Gc(a2-6)Gal(b1-4)GlcNAc
Method in brief: as §1

[39] = target: Neu5Gc(b2-6)Gal(b1-4)GlcNAc
Method in brief: as §1

B1: Gal 8 (Homo sapiens) (protein)
chain: MLSLNNLQNIIYNPVIPYVGTIPDQLDPGTLIVICGHVPSDADRFQVDLQNGSSVKPRADVAFHFNPRFKRAGCIVCNTLINEKWGREEITYDTPFKREKSFEIVIMVLKDKFQVAVNGKHTLLYGHRIGPEKIDTLGIYGKVNIHSIGFSFSSDLQSTQASSLELTEISRENVPKSGTPQLQTVSPSWDLQGHGSETFCSVLWTRVFLEIAFCRPIGLTVASFQSLPFAARLNTPMGPGRTVVVKGEVNANAKSFNVDLLAGKSKDIALHLNPRLNIKAFVRNSFLQESWGEEERNITSFPFSPGMYFEMIIYCDVREFKVAVNGVHSLEYKHRFKELSSIDTLEINGDIHLLEVRSW
B1 was tested, and the “glycan array binding signal (z-score)” value [1] was -0.352, the “glycan array binding signal (z-score)” value [2] was -0.354 and the “glycan array binding signal (z-score)” value [3] was -0.362. For the same binder, the “glycan array binding signal (z-score)” value [4] was -0.183, the “glycan array binding signal (z-score)” value [5] was -0.398 and the “glycan array binding signal (z-score)” value [6] was -0.356. For the same binder, the “glycan array binding signal (z-score)” value [7] was -0.357, the “glycan array binding signal (z-score)” value [8] was -0.356 and the “glycan array binding signal (z-score)” value [9] was -0.355. The “glycan array binding signal (z-score)” value [10] was 0.65, the “glycan array binding signal (z-score)” value [11] was -0.356 and the “glycan array binding signal (z-score)” value [12] was 1.63. The “glycan array binding signal (z-score)” value [13] was -0.262, the “glycan array binding signal (z-score)” value [14] was -0.355 and the “glycan array binding signal (z-score)” value [15] was -0.398. The “glycan array binding signal (z-score)” value [16] was -0.396, the “glycan array binding signal (z-score)” value [17] was 0.367 and the “glycan array binding signal (z-score)” value [18] was -0.355. The “glycan array binding signal (z-score)” value [19] was -0.399, the “glycan array binding signal (z-score)” value [20] was -0.145 and the “glycan array binding signal (z-score)” value [21] was -0.261. For the same binder, the “glycan array binding signal (z-score)” value [22] was -0.75, the “glycan array binding signal (z-score)” value [23] was -0.379 and the “glycan array binding signal (z-score)” value [24] was -0.369. The “glycan array binding signal (z-score)” value [25] was -0.35, the “glycan array binding signal (z-score)” value [26] was -0.402 and the “glycan array binding signal (z-score)” value [27] was 0.648. The “glycan array binding signal (z-score)” value [28] was -0.15, the “glycan array binding signal (z-score)” value [29] was 0.727 and the “glycan array binding signal (z-score)” value [30] was -0.037. For the same binder, the “glycan array binding signal (z-score)” value [31] was -0.198, the “glycan array binding signal (z-score)” value [32] was -0.269 and the “glycan array binding signal (z-score)” value [33] was -0.399. For the same binder, the “glycan array binding signal (z-score)” value [34] was -0.4, the “glycan array binding signal (z-score)” value [35] was -0.295 and the “glycan array binding signal (z-score)” value [36] was -0.284. For the same binder, the “glycan array binding signal (z-score)” value [37] was -0.233, the “glycan array binding signal (z-score)” value [38] was -0.355 and the “glycan array binding signal (z-score)” value [39] was -0.364.

Reference: the supplement of paper PMC8728848
